# Reference: PubChem BioAssay AID488969 (Vanderbilt High Throughput Screening Facility, 2010)
# In all, about 110,000 compounds were measured (“z-score”: median about -0.1, highest 2% from about 2 on). This is one part of the list. Calls of active or inactive are those of the source.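 The calls were made as follows: active = z-score in the third read window above 3 or below -3; inactive = the rest.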
# Biological target: Metabotropic glutamate receptor 8 (Rattus norvegicus) (UniProt P70579)
# Test: rat mGluR8 modulators via GIRK flux, primary screen, cell-based, thallium flux, HTS (AID 488969)
# Details: HEK293 rat mGluR8, GIRK (G protein-gated inwardly rectifying potassium channel) thallium flux, FluoZin2; at 10 µM; stronger effect = higher value; submaximal glutamate (EC20) added with thallium
# UniProt P70579, sequence (P70579 whole entry, looked up): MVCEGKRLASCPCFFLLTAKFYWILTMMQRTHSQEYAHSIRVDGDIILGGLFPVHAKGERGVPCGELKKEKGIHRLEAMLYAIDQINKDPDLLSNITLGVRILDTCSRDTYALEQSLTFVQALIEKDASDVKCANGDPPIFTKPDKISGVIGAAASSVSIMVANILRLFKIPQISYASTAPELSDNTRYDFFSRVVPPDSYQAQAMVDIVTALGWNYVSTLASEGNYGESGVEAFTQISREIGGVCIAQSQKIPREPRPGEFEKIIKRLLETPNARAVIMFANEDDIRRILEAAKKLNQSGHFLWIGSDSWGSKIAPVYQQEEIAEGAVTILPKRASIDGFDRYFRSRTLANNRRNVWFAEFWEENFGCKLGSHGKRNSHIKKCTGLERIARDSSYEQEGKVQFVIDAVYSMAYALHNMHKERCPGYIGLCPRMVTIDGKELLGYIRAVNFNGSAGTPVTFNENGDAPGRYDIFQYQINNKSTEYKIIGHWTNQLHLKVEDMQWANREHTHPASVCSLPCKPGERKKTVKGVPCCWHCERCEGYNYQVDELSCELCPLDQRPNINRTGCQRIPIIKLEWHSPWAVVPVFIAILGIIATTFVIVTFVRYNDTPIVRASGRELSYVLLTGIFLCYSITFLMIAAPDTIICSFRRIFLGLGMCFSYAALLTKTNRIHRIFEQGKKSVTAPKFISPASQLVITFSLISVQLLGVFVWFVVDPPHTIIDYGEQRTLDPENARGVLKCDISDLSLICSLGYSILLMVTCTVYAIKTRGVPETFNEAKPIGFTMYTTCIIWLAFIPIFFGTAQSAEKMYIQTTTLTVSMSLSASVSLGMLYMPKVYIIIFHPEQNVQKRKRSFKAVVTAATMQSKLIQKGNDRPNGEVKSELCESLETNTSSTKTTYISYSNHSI
row,Structure (SMILES),z-score
1,Cc1cc(C(F)F)n2nc(C(=O)Nc3sc4c(c3C#N)CCC(C)C4)nc2n1 (centres undefined),0.262
2,Cc1nc(CS(=O)(=O)c2ccccc2)cc(Sc2ccc(Cl)cc2)n1,-0.767
3,O=C(Nc1cccc(S(=O)(=O)Nc2ccc(Cl)cc2)c1)c1ccc(Cl)nc1,0.238
4,N/C(=N\c1nc2ccccc2o1)NC(=O)c1ccccc1,-0.339
5,CCOC(=O)c1cnc2ccc(OCC)cc2c1N(C)Cc1ccccc1,-0.413
6,COc1ccc(-n2nc(C(=O)Nc3ccc4c(c3)OCO4)c3c4ccccc4n(C)c3c2=O)cc1,-0.137
7,Cc1cc(NS(=O)(=O)c2ccc(NC(=O)Nc3ccccc3)cc2)no1,0.82
8,C=CCc1cc(C)ccc1OCCn1ccnc1,-0.488
9,CCOC(=O)C1=C(c2ccccc2)N2CCS(=O)(=O)N=C2S1,0.367
10,COCCCNC(=S)NNC(=O)c1ccoc1C,1.33
11,CCOC(=O)c1c(N)sc(=S)c2c1CCC2,-0.542
12,CC(=O)Nc1ccc(S(C)(=O)=O)c(C)c1,0.46
13,Cc1ccc(N2C(=O)CC(Sc3ncn[nH]3)C2=O)cc1 (centres undefined),-0.0312
14,COc1ccc(C(=O)Nc2cc(OCc3ccccc3)c(Cl)cc2Cl)cc1,-0.094
15,Cc1ccc(NC2=C(Cl)C(=O)OC2OC(=O)c2ccco2)c(C)c1 (centres undefined),-0.515
16,O=S1(=O)N=C(N/N=C/C=C/c2ccccc2)c2ccccc21,0.384
17,CC1(C)CC(=O)C2=C(C1)Nc1ccccc1NC2c1nc2ccccc2[nH]1 (centres undefined),-0.113
18,O=C1c2ccccc2C(=O)N1CCCCN(C(=O)c1cc([N+](=O)[O-])ccc1Cl)c1ccc(Cl)cc1,0.201
19,N#C/C(=C/c1ccc(Cl)cc1)NC(=O)c1ccccc1,-0.268
20,CCOC(=O)c1nnsc1NC(C)=O,0.312
21,Cc1nnc(C)n1/N=C/c1cc(Br)cc(Br)c1O,-0.423
22,CC1=C(C(=O)Nc2ccccc2)C(c2cccc([N+](=O)[O-])c2)Nc2nc3ccccc3n21 (centres undefined),-0.0653

row,Structure (SMILES),z-score
1,COC(=O)Nc1nnc(SCc2ccc(C)cc2)s1,0.0636
2,COc1ccc(-c2nn(-c3ccccc3)cc2/C=C/C(=O)OCC(=O)Nc2cccc(C#N)c2)cc1,0.732
3,O=C(c1ccc(CS(=O)(=O)c2ccc(Br)cc2)o1)N1CCCCCC1,-0.0821
4,COc1cc(NC(=O)c2ccc(C)cc2)c(OC)cc1NC(=O)CN1CCOCC1,-0.672
5,N#C[C@H]1[C@H](c2ccccc2)[C@](C#N)(C(=O)c2ccccc2)[C@@H]2C=Cc3ccccc3N21,-0.88
6,Cc1ccc(NC(=O)CSc2nc(-c3ccco3)cc(C(F)(F)F)n2)cc1C,-0.269
7,CCOC(=O)c1cc(NC(=O)CSc2nnc(CN3CCOCC3)n2C)ccc1Cl,-0.865
8,Cc1nn(C)cc1/C=C/C(=O)c1ccc(O)cc1,-0.127
9,O=c1c2cnn(-c3ccccc3)c2nc(-c2cccs2)n1-c1cccc(Cl)c1,0.0379
10,CC(C)(C)n1nnnc1C(c1cccs1)N(Cc1ccccc1)Cc1cccnc1 (centres undefined),-0.249
11,O=C(Cc1ccc(Cl)cc1)NCCN1CCCC1,-0.135
12,O=C(OCCN1C(=O)c2ccccc2C1=O)c1ccc(S(=O)(=O)N2CCCCCC2)cc1,-0.669
13,C/C(CCc1oc2ccccc2c1-c1ccc(C)o1)=N/O,-1
14,CCOC(=O)c1nn(-c2ccccc2F)c(-c2ccccc2)c1C(=O)c1ccccc1,-0.234
15,Cc1ccc(CNCc2cc3c(C(C)(C)C)nn(-c4ccccc4)c3[nH]c2=O)cc1,-0.85
16,COc1ccc(OC)c(S(=O)(=O)Nc2cccc(F)c2)c1,-0.305
17,CC(C)c1ccc(NC(=O)CCNS(=O)(=O)c2cccc3nsnc23)cc1,0.063
18,ON=C1/C(=N\O)CC2(C/C1=N/O)OCCO2,-0.211
19,CCCCNC(=S)N(C)/N=C/c1c(C)[nH]c2ccccc12,-0.214
20,O=C(O)C=C1C2CC3CC(C2)CC1C3,0.219
21,O=C(CCCOc1ccccc1)Nc1cccc(C(=O)O)c1,-0.363
22,COc1cc(NC(=O)C/C(C)=N/NC(=O)C(OC)c2ccccc2)c(OC)cc1Cl (centres undefined),-0.317

row,Structure (SMILES),z-score
1,CC(=O)Nc1nonc1-c1nc2ccccc2n1Cc1ccccn1,-1.12
2,Cn1c(N)c(C(=O)COC(=O)c2cccc(S(=O)(=O)N3CCCCC3)c2)c(=O)n(C)c1=O,-0.62
3,Cc1ccccc1NS(=O)(=O)c1ccc2[nH]cc(C(=O)NCCCN3CCOCC3)c(=O)c2c1,-0.131
4,COC(=O)CN(C(=S)Nc1ccccc1)C1CC(=O)N(c2ccc(OC)cc2)C1=O (centres undefined),-0.274
5,Cc1cc2nnc(SCC(=O)NCc3cccs3)n2c(N)n1,-0.811
6,COc1cccc(C(=O)N(Cc2nc(-c3ccc(C)cc3)no2)C(C)C)c1,0.154
7,COc1cnc(SCc2ccc(Cl)cc2Cl)nc1Cl,-0.177
8,O=C(NC12CC3CC(CC(C3)C1)C2)N1CCN(c2ccccn2)CC1,-0.264
9,COc1c(C(=O)NCCSC(C)(C)C)ccc2ccccc12,-0.145
10,CC1CC(C)CN(C(=S)Nc2ccc(SC(F)F)cc2)C1 (centres undefined),active: 6.63
11,COC(=O)[C@H](CCSC)NC(=O)NCCc1ccc(F)cc1,-0.248
12,O=C(CSc1nc2ccccc2o1)Nc1nc2ccccc2s1,-0.205
13,CC(Cc1c[nH]c2ccccc12)NC(=O)C1CCCNC1=O (centres undefined),-0.0293
14,Nc1ccc(C(=O)Nc2ccc3nc(-c4cccnc4)[nH]c3c2)cc1,-0.0375
15,O=C(COC(=O)/C=C/c1ccc([N+](=O)[O-])cc1)NC(c1ccccc1)c1ccccc1,0.0953
16,O=C1/C(=C/c2ccc(C(=O)O)cc2)CCC/C1=C\c1ccc(C(=O)O)cc1,0.0249
17,O=C(NCCN1CCN(Cc2ccccc2Cl)CC1)Nc1ccccc1,-0.181
18,Cc1ccc(-c2nc3ncccc3o2)cc1NC(=O)c1cc2ccccc2o1,-0.0428
19,CCOC(=O)N1CCC(NC(=O)C2CCN(C(=O)N3CC(C)Oc4ccccc43)CC2)CC1 (centres undefined),-0.46
20,CNC(=O)CN1C(=O)c2ccccc2S1(=O)=O,0.0727
21,O=C(N/N=C/c1ccccc1Br)c1ccc(CSc2cccc3cccnc23)cc1,0.394
22,O=C(CCn1c(=O)sc2ccccc21)Nc1cccnc1,-0.18

row,Structure (SMILES),z-score
1,Cc1sc2ncnc(OCC(=O)c3ccc(S(=O)(=O)N4CCCC4)cc3)c2c1C,-0.168
2,CCCN(CC1CC1)c1nc(N)c2c(N)nc(OC)cc2c1C#N,-0.104
3,CCN1CCN(c2oc(-c3ccc(OC)cc3)nc2C#N)CC1,0.225
4,CCn1nnnc1SCC(=O)Nc1nnc(C(C)C)s1,0.188
5,CC(C)N(C(=O)COC(=O)c1ccccc1C(=O)N1CCN(c2ccc(F)cc2)CC1)C(C)C,0.192
6,COc1ccc(-c2cc3nc(C)c(CCC(=O)NC(C)CCc4ccco4)c(C)n3n2)c(OC)c1 (centres undefined),-0.467
7,O=C(c1ccccc1)N1CCCC(c2ccc(Cl)cc2)=N1,-0.439
8,CCn1nc(C)cc1-c1n[nH]c(=S)n1N,-0.258
9,O=S(=O)(NCc1ccc2c(c1)OCO2)c1cnc[nH]1,0.285
10,O=C(c1cccs1)N1CCN(C(=O)C2CCCO2)CC1 (centres undefined),-0.53
11,CCOc1ccc(C(=O)NC2CCN(C(=O)N3CCCC3)CC2)cc1,0.0864
12,COc1ccccc1-c1nnn(C/C(N)=N/O)n1,-0.288
13,COC(=O)C1=C(C)Nc2ccc(C)cc2S1,-1.05
14,Cc1cccc(C(=O)Nc2cccc(C(=O)N/N=C/c3ccncc3)c2)c1,0.416
15,O=C(Cc1coc2ccc3ccccc3c12)NC1CCCc2ccccc21 (centres undefined),-0.181
16,CCOC(=O)c1cc(CC)sc1/N=C/C1=C(O)CC(C)(C)CC1=O,-0.513
17,CC1(C)C2CCC1(CS(=O)(=O)Nc1ccc(S(=O)(=O)N3CCCCC3)cc1)C(=O)C2 (centres undefined),-0.337
18,Cc1ccc(-c2nnc(SCC(=O)Nc3ccc4c(c3)oc3ccccc34)n2C)c(Cl)c1,0.013
19,CCC(=O)N1CCN(c2ccc(Cl)cc2NC(=O)c2ccc(N3CCCC3)c([N+](=O)[O-])c2)CC1,-1.34
20,COc1ccccc1NC(=O)CN(c1ccc(C23CC4CC(CC(C4)C2)C3)cc1)S(C)(=O)=O,-0.0531
21,CN1c2ccsc2/C(=N/NC(=O)c2c(F)cccc2F)CS1(=O)=O,0.0596
22,CC1(C(=O)NC2CCCC2)CCC(=O)N1Cc1ccc2c(c1)OCO2 (centres undefined),0.0571

row,Structure (SMILES),z-score
1,COc1cc(/C=N/N2C(=O)C3C4c5ccccc5C(c5ccccc54)C3C2=O)ccc1O (centres undefined),-0.257
2,O=C(NCc1ccco1)C(c1ccco1)N(C(=O)Cn1nnc2ccccc21)c1ccc2c(c1)CCC2 (centres undefined),-0.52
3,CCOc1cc(/C=N/NC(=O)c2cccs2)ccc1OC(=O)N1CCOCC1,0.027
4,O=C1C2CSCN2C(=O)CN1CCCN1CCN(C(c2ccccc2)c2ccccc2)CC1 (centres undefined),-0.2
5,Clc1ccc(Cn2ncc3c(NCCN4CCOCC4)ncnc32)cc1,-0.0527
6,CCCCNC(=O)c1cc(-c2ccc(OC)cc2)on1,-0.379
7,CN(C)Cc1c(O)ccc2c3c(c(=O)oc12)CCCCC3,0.385
8,NS(=O)(=O)c1ccc(CCNC(=O)CSc2ccccc2)cc1,0.222
9,Cc1ccccc1-n1ncc2c(SCC(=O)NCc3cccs3)ncnc21,0.377
10,CN(C(=O)COC(=O)c1nc(-c2ccccc2)n(-c2ccccc2)n1)C1CCS(=O)(=O)C1 (centres undefined),-0.248
11,Cc1[nH]c(C(=O)O)c(C)c1C(=O)OC(C)C,0.61
12,Clc1ccc(Cl)c(-c2nn3c(COc4ccccc4)nnc3s2)c1,-0.0514
13,CCOc1ccccc1NC(=O)N1CCC(NC(=O)c2ccccc2C)CC1,0.154
14,Clc1cccc(-c2nnc3sc(-c4ccccc4)nn23)c1,-0.275
15,O=C1OC(c2cccs2)=N/C1=C\c1ccc(-c2cccc(Cl)c2)o1,-0.0971
16,CN(C)S(=O)(=O)c1ccc(C(=O)Nc2ccccc2F)cc1,0.0546
17,O=C(CSc1nnc2scc(-c3ccc(Cl)cc3)n12)NCc1ccco1,-0.632
18,COC(=O)c1sc(NC(=O)/C=C/c2ccc(C)o2)nc1C,-0.15
19,O=[N+]([O-])c1ccc(C=Nc2ccc(Cl)cc2Cl)s1,-0.132
20,O=C(c1cccs1)N1CCN(CCCc2ccccc2)CC1,-0.15
21,Clc1ccc(CSc2cc3c(nn2)-c2ccccc2CC3)cc1Cl,0.0327
